# The supplement of paper PMC8728848
# The list shows a part of the results.
# B1: Morniga (Morus nigra) (protein)
# chain: MAGTSTNTQTTGTSQTVEVGLWGGPGGNAWDDGSYTGIREINLSHGDAIGAFSVIYDLNGQPFTGPTHPGNEPSFKTVKITLDFPNEFLVSVSGYTGVLPRLATGKDVIRSLTFKTNKKTYGPYGKEEGTPFSLPIENGLIVGFKGRSGFVVDAIGVHLS
# Key:
# Experiment in all cases: glycan array binding signal (z-score within array); higher = stronger binding
# Conditions in all cases: glycan notation: IUPAC condensed, linker removed
# [1] = molecular target: Fuc(a1-2)[GalNAc(a1-3)]Gal(b1-4)GlcNAc(b1-3)Gal(b1-4)GlcNAc
# In short: (§1)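 Arrays were curated from the Consortium for Functional Glycomics database, 3228 in total, and kept only where the protein sequence was available. Binding is expressed as a within-array Z-score. This score was averaged across arrays of the same protein sequence at different concentrations or buffers and across linkers, and negative values can be read as non-binding.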
# [2] = molecular target: Fuc(a1-2)[GalNAc(a1-3)]Gal(b1-4)GlcNAc(b1-3)Gal(b1-4)GlcNAc(b1-3)Gal(b1-4)GlcNAc
# In short: as §1
# [3] = molecular target: Fuc(a1-2)[GalNAc(a1-3)]Gal(b1-4)GlcNAc(b1-3)GalNAc
# In short: as §1
# [4] = molecular target: Fuc(a1-2)[GalNAc(a1-3)]Gal(b1-4)[Fuc(a1-3)]GlcNAc
# In short: as §1
# [5] = molecular target: Fuc(a1-2)[GalNAc(a1-3)]Gal(b1-4)[Fuc(a1-3)]GlcNAc(b1-3)GalNAc
# In short: as §1
# [6] = molecular target: Fuc(a1-2)[GalNAc(a1-4)]Gal(b1-4)GlcNAc
# In short: as §1
# [7] = molecular target: Fuc(a1-2)[GalNAc(b1-3)]Gal
# In short: as §1
# Fuc(a1-3)GlcNAc = molecular target: Fuc(a1-3)GlcNAc
# In short: as §1
# [8] = molecular target: Fuc(a1-3)[Gal(b1-4)]Glc6S
# In short: as §1
# [9] = molecular target: Fuc(a1-3)[Gal(b1-4)]GlcNAc
# In short: as §1
# [10] = molecular target: Fuc(a1-3)[Gal(b1-4)]GlcNAc(b1-2)Man
# In short: as §1
# [11] = molecular target: Fuc(a1-3)[Gal(b1-4)]GlcNAc(b1-2)Man(a1-3)[Fuc(a1-3)[Gal(b1-4)]GlcNAc(b1-2)Man(a1-6)]Man(b1-4)GlcNAc(b1-4)GlcNAc
# In short: as §1
# [12] = molecular target: Fuc(a1-3)[Gal(b1-4)]GlcNAc(b1-2)Man(a1-3)[Fuc(a1-3)[Gal(b1-4)]GlcNAc(b1-2)Man(a1-6)]Man(b1-4)GlcNAc(b1-4)[Fuc(a1-6)]GlcNAc
# In short: as §1
# [13] = molecular target: Fuc(a1-3)[Gal(b1-4)]GlcNAc(b1-3)Gal(b1-3)[Fuc(a1-4)]GlcNAc
# In short: as §1
# [14] = molecular target: Fuc(a1-3)[Gal(b1-4)]GlcNAc(b1-3)GalNAc
# In short: as §1
# [15] = molecular target: Fuc(a1-3)[Gal(b1-4)]GlcNAc(b1-4)Gal(b1-4)[Fuc(a1-3)]GlcNAc
# In short: as §1
# [16] = molecular target: Fuc(a1-3)[Gal(b1-4)]GlcNAc(b1-4)Gal(b1-4)[Fuc(a1-3)]GlcNAc(b1-4)Gal(b1-4)[Fuc(a1-3)]GlcNAc
# In short: as §1
# [17] = molecular target: Fuc(a1-3)[Gal(b1-4)]GlcNAc(b1-6)GalNAc
# In short: as §1
# [18] = molecular target: Fuc(a1-3)[Gal(b1-4)]GlcNAc(b1-6)[Gal(b1-3)GlcNAc(b1-3)]Gal(b1-4)Glc
# In short: as §1
# [19] = molecular target: Fuc(a1-3)[Gal(b1-4)]GlcNAc(b1-6)[Neu5Ac(a2-3)Gal(b1-3)]GalNAc
# In short: as §1
# [20] = molecular target: Fuc(a1-3)[Gal(b1-4)]GlcNAc6S
# In short: as §1
# [21] = molecular target: Fuc(a1-3)[Gal3S(b1-4)]GlcNAc
# In short: as §1
# [22] = molecular target: Fuc(a1-3)[Gal3S(b1-4)]GlcNAc6S
# In short: as §1
# [23] = molecular target: Fuc(a1-3)[GalNAc(b1-4)]GlcNAc
# In short: as §1
# [24] = molecular target: Fuc(a1-3)[GalNAc(b1-4)]GlcNAc6S
# In short: as §1
# [25] = molecular target: Fuc(a1-3)[GalNAc3S(b1-4)]GlcNAc
# In short: as §1
# Fuc(a1-4)GlcNAc = molecular target: Fuc(a1-4)GlcNAc
# In short: as §1
# Fuc(b1-3)GlcNAc = molecular target: Fuc(b1-3)GlcNAc
# In short: as §1
# Gal(a1-2)Gal = molecular target: Gal(a1-2)Gal
# In short: as §1
# Gal(a1-3)Gal = molecular target: Gal(a1-3)Gal
# In short: as §1
# Gal(a1-3)Gal(b1-3)GlcNAc = molecular target: Gal(a1-3)Gal(b1-3)GlcNAc
# In short: as §1
# [26] = molecular target: Gal(a1-3)Gal(b1-3)GlcNAc(b1-2)Man(a1-3)[Gal(a1-3)Gal(b1-3)GlcNAc(b1-2)Man(a1-6)]Man(b1-4)GlcNAc(b1-4)GlcNAc
# In short: as §1
# [27] = molecular target: Gal(a1-3)Gal(b1-3)GlcNAc(b1-3)GalNAc
# In short: as §1
# [28] = molecular target: Gal(a1-3)Gal(b1-3)GlcNAc(b1-6)GalNAc
# In short: as §1
# [29] = molecular target: Gal(a1-3)Gal(b1-3)[Fuc(a1-4)]GlcNAc(b1-2)Man(a1-3)[Gal(a1-3)Gal(b1-3)[Fuc(a1-4)]GlcNAc(b1-2)Man(a1-6)]Man(b1-4)GlcNAc(b1-4)GlcNAc
# In short: as §1
# Gal(a1-3)Gal(b1-4)Glc = molecular target: Gal(a1-3)Gal(b1-4)Glc
# In short: as §1
# Gal(a1-3)Gal(b1-4)GlcNAc = molecular target: Gal(a1-3)Gal(b1-4)GlcNAc
# In short: as §1
# [30] = molecular target: Gal(a1-3)Gal(b1-4)GlcNAc(b1-3)GalNAc
# In short: as §1
# [31] = molecular target: Gal(a1-3)Gal(b1-4)GlcNAc(b1-6)GalNAc
# In short: as §1
# [32] = molecular target: Gal(a1-3)Gal(b1-4)[Fuc(a1-3)]GlcNAc
# In short: as §1
# [33] = molecular target: Gal(a1-3)Gal(b1-4)[Fuc(a1-3)]GlcNAc(b1-2)Man(a1-3)[Gal(a1-3)Gal(b1-4)[Fuc(a1-3)]GlcNAc(b1-2)Man(a1-6)]Man(b1-4)GlcNAc(b1-4)GlcNAc
# In short: as §1
# Gal(a1-3)GalNAc = molecular target: Gal(a1-3)GalNAc
# In short: as §1
# [34] = molecular target: Gal(a1-3)[Gal(a1-4)]Gal(b1-4)GlcNAc
# In short: as §1
# [35] = molecular target: Gal(a1-4)Gal(b1-3)GlcNAc(b1-2)Man(a1-3)[Gal(a1-4)Gal(b1-3)GlcNAc(b1-2)Man(a1-6)]Man(b1-4)GlcNAc(b1-4)GlcNAc
# In short: as §1
# Gal(a1-4)Gal(b1-4)Glc = molecular target: Gal(a1-4)Gal(b1-4)Glc
# In short: as §1
binder,measurement,setting,value
B1,glycan array binding signal (z-score),[1],-0.34
same,glycan array binding signal (z-score),[2],-0.329
same,glycan array binding signal (z-score),[3],-0.341
same,glycan array binding signal (z-score),[4],-0.334
same,glycan array binding signal (z-score),[5],-0.312
same,glycan array binding signal (z-score),[6],-0.34
same,glycan array binding signal (z-score),[7],-0.342
same,glycan array binding signal (z-score),Fuc(a1-3)GlcNAc,-0.339
same,glycan array binding signal (z-score),[8],-0.332
same,glycan array binding signal (z-score),[9],-0.338
same,glycan array binding signal (z-score),[10],-0.317
same,glycan array binding signal (z-score),[11],1.64
same,glycan array binding signal (z-score),[12],-0.304
same,glycan array binding signal (z-score),[13],-0.333
same,glycan array binding signal (z-score),[14],-0.305
same,glycan array binding signal (z-score),[15],-0.338
same,glycan array binding signal (z-score),[16],-0.343
same,glycan array binding signal (z-score),[17],-0.317
same,glycan array binding signal (z-score),[18],-0.34
same,glycan array binding signal (z-score),[19],-0.305
same,glycan array binding signal (z-score),[20],-0.337
same,glycan array binding signal (z-score),[21],-0.342
same,glycan array binding signal (z-score),[22],-0.324
same,glycan array binding signal (z-score),[23],-0.324
same,glycan array binding signal (z-score),[24],-0.335
same,glycan array binding signal (z-score),[25],-0.322
same,glycan array binding signal (z-score),Fuc(a1-4)GlcNAc,-0.336
same,glycan array binding signal (z-score),Fuc(b1-3)GlcNAc,-0.329
same,glycan array binding signal (z-score),Gal(a1-2)Gal,-0.335
same,glycan array binding signal (z-score),Gal(a1-3)Gal,-0.337
same,glycan array binding signal (z-score),Gal(a1-3)Gal(b1-3)GlcNAc,-0.345
same,glycan array binding signal (z-score),[26],0.162
same,glycan array binding signal (z-score),[27],-0.343
same,glycan array binding signal (z-score),[28],-0.34
same,glycan array binding signal (z-score),[29],0.355
same,glycan array binding signal (z-score),Gal(a1-3)Gal(b1-4)Glc,-0.338
same,glycan array binding signal (z-score),Gal(a1-3)Gal(b1-4)GlcNAc,-0.338
same,glycan array binding signal (z-score),[30],-0.34
same,glycan array binding signal (z-score),[31],-0.328
same,glycan array binding signal (z-score),[32],-0.335
same,glycan array binding signal (z-score),[33],0.347
same,glycan array binding signal (z-score),Gal(a1-3)GalNAc,-0.336
same,glycan array binding signal (z-score),[34],-0.34
same,glycan array binding signal (z-score),[35],2.59
same,glycan array binding signal (z-score),Gal(a1-4)Gal(b1-4)Glc,-0.333
